# Assay results: PubChem BioAssay AID1347073 (National Center for Advancing Translational Sciences (NCATS), 2019)
# Among all 45,000 compounds or so, about 200 (0.44%) were called active. About 7% were inconclusive and are not listed. Calls come from the whole dose curve; as a rule, active = well fitted activation curve with a large enough effect; inconclusive = small, poorly fitted or top-dose-only effect; inactive = no such curve, though single readings can be large or run the other way. The list shows a part of the results. Square brackets hold non-standard residues; d marks the D form. Peptide text beside a SMILES is read from it. * marks the point of attachment. Tic = O=C(O)[C@@H]1Cc2ccccc2CN1; Boc = CC(C)(C)OC(=O)*
# Experiment: qHTS of TDP-43 Inhibitors: NCGC Sytravon Library Screen; note: 0% is about no effect; nearly all actives have a fitted effect of over 55% in size
# Conditions: yeast TDP-43 toxicity rescue, BacTiter-Glo growth, 24 h; series mostly up to 46.1 µM; growth rescue (activation): at the top concentration
# How it was run: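 TDP-43-expressing yeast, pregrown in raffinose, seeded at OD600 0.02 in galactose medium with compound for 24 hr at 30 deg C. Growth read by BacTiter-Glo luminescence, so rescue of toxicity appears as activation.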
row,Compound,growth rescue (activation)
1,CC(=O)C1=C(O)C(=O)N(Cc2ccccc2)C1c1ccc(Cl)cc1 (centres undefined),inactive: -3.65%
2,COc1ccc(OC)c(S(=O)(=O)N2CCN(C)CC2c2ccccc2)c1 (centres undefined),inactive: -4.19%
3,COc1ccc(-n2cnc3cc(C(=O)NCCN4CCOCC4)ccc32)cc1,inactive: 8.86%
4,O=C(Cn1cc(C(F)(F)F)ccc1=O)OCC(=O)c1ccc[nH]1,inactive: -9.62%
5,O=[N+]([O-])c1ccc(-c2ccc(/C=N/Nc3nc(N4CCCC4)nc(N4CCCC4)n3)o2)cc1,inactive: 11%
6,Cc1ccc(OCC(=O)c2cc(C)n(CC(F)(F)F)c2C)c([N+](=O)[O-])n1,inactive: 10.4%
7,COc1nc(-c2cnccn2)sc1C,inactive: -3.25%
8,Cc1nnc(-c2ccccc2)[nH]c1=O,inactive: -7.48%
9,Cc1ccc(NC(=O)c2ccc([N+](=O)[O-])o2)cc1C,inactive: -94%
10,COc1ccccc1-n1c(Cc2cccs2)n[nH]c1=S,inactive: -8.02%
11,CC(C)(C)OC(=O)N1Cc2ccccc2C[C@H]1C(=O)N1CCC[C@H]1C(=O)O (Boc-[Tic]-Pro-OH),inactive: -3.75%
12,O=C(NCC(c1ccc(F)cc1)N1CCOCC1)c1ccc(C(=O)c2ccccc2)cc1 (centres undefined),inactive: -16.9%
13,Cc1cc(C)cc(NC(=O)Nc2cccs2)c1,inactive: -1.67%
14,Cc1cc(C)n(CC(C)NC(=O)CCc2nnc(CCc3ccccc3)o2)n1 (centres undefined),inactive: 1.07%
15,O=C(c1nc2ccccc2[nH]1)c1ccccc1[N+](=O)[O-],inactive: 18%
16,NS(=O)(=O)c1ccc(CNC(=O)c2ccc(Cl)cc2[N+](=O)[O-])cc1,inactive: 20.4%
17,CSc1nc2c(c(=O)[nH]1)C(c1ccccc1Cl)CC(=O)N2 (centres undefined),inactive: -2.58%
18,Cc1ccc(NC(=O)CN2C(=O)N/C(=C/c3ccc4c(c3)OCCO4)C2=O)cc1,inactive: 1.98%
19,O=C(COC(=O)CCc1nc2ccccc2c(=O)[nH]1)Nc1ccc(N2CCOCC2)cc1,inactive: 25.1%
20,N#CCc1nn(-c2ccc(Cl)cc2)c(N)c1C#N,inactive: 18.1%
21,O=C(COc1cccnc1[N+](=O)[O-])N1CCc2ccccc2C1,inactive: -1.02%
22,CCN(CC)S(=O)(=O)c1ccc(C(=O)OCC(=O)NC2CCCC2)cc1,inactive: 0.058%
23,COC(=O)c1ccc(NC(=O)C2CCCN(S(C)(=O)=O)C2)cc1 (centres undefined),inactive: -10.6%
24,S=C(NCCN1CCOCC1)Nc1ccc(Br)cc1,inactive: -17.5%
25,O=C(NNC(=O)c1cc(Cl)ccc1O)c1cccs1,inactive: 14.6%
26,O=C(O)CNC(=O)/C(=C\c1cccc([N+](=O)[O-])c1)NC(=O)c1ccco1,inactive: 31.1%
27,COC(=O)c1cc(NC(=O)c2ccc(C)cc2)c(=O)oc1C,inactive: 3.05%

row,Compound,growth rescue (activation)
1,O=C(CC12CC3CC(CC(Br)(C3)C1)C2)NCc1ccccc1,inactive: 5%
2,CSc1ncccc1C(=O)OCC(=O)c1ccc(C)s1,inactive: 7.54%
3,C/C(=N\NC(=O)c1cccc(Cl)c1)c1cccc(NC(=O)c2ccco2)c1,inactive: 0.739%
4,CC(=O)NC(Cc1ccc(F)c(F)c1)C(=O)NC1CCN(c2nnnn2-c2ccccc2)CC1 (centres undefined),inactive: -0.882%
5,O=C(CC1C(=O)NCCN1Cc1ccccc1C(F)(F)F)NCCn1cccn1 (centres undefined),inactive: 8.95%
6,CCCN(CCC)C(=O)Cn1c(=O)n(CCCC(=O)NCc2ccco2)c(=O)c2sccc21,inactive: 0.43%
7,S=C(N/N=C1\CCc2ccccc21)NC1CCCCC1,inactive: 25.8%
8,Nc1cc(N)nc(SCC(=O)Nc2ccc3c(c2)OCO3)n1,inactive: 3.16%
9,O=C1NC2=C(C(=O)CCC2)C(c2ccccc2)N1 (centres undefined),inactive: 10.8%
10,Cc1nnc(SCC(=O)NC23CC4CC(CC(C4)C2)C3)s1,inactive: 12.8%
11,O=C1CC(N2CCSCC2)C(=O)N1c1ccccc1 (centres undefined),inactive: 7.67%
12,Cc1ccc(-c2nn(-c3ccccc3)cc2/C=C(\C#N)C(=O)NCc2ccccc2)cc1,inactive: 6.51%
13,CCc1cc(C(=O)N/N=C/c2ccc(O)cc2)c2ccccc2n1,inactive: -12.5%
14,O=C(Cn1cc([N+](=O)[O-])ccc1=O)NCC(=O)Nc1ccc(F)c(F)c1F,inactive: -5.66%
15,COc1ccc([N+](=O)[O-])cc1NC(=O)c1ccc(CN(c2ccccc2)S(C)(=O)=O)cc1,inactive: 0.659%
16,Cc1cccnc1NC(=O)c1ccc(S(=O)(=O)N2CC(C)OC(C)C2)cc1 (centres undefined),inactive: -9.12%
17,NS(=O)(=O)c1ccc(CCNC(=O)c2ccc(Cn3c(=O)[nH]c4ccccc4c3=O)cc2)cc1,inactive: -3.82%
18,Cc1ccc(OCC(=O)Nc2ccc3c(c2)OCCO3)cc1C,inactive: -1.74%
19,O=C(Nc1ccccc1NS(=O)(=O)c1ccc(F)cc1)C1CCC1,inactive: 14.3%
20,Cc1cccc(Nc2nc3ccccc3n3c(N)nnc23)c1,inactive: 23.3%
21,CCn1cc(CN2CCCC(C(=O)c3ccc(-c4ccccc4)cc3)C2)cn1 (centres undefined),inactive: 1.42%
22,CN(Cc1ccco1)C(=O)CSc1nc(C2CC2)n(-c2ccccc2)n1,inactive: 28.5%
23,COCCN1C[C@@H](CO)O[C@@H](n2cnc3c(N(C)C(C)C)ncnc32)C1,inactive: 10.1%
24,Cc1cc(C)c(NC(=O)c2oc3ccccc3c2COc2ccccc2)c(C)c1,inactive: 4.87%
25,COc1ccc(NC(=S)N(CCN2CCOCC2)C2CCN(C(C)=O)CC2)cc1Cl,inactive: -5.72%
26,CCOC(=O)C1CCN(c2ccc([N+](=O)[O-])cc2)CC1,inactive: 10.3%
27,COc1ccc(C2=NN(C(=O)CCC(=O)O)C(c3ccc(F)cc3)C2)cc1 (centres undefined),inactive: -0.285%
